Data published in the supplement of paper PMC12217912.
This is one part of the list. The full chains were built here from the parent and the listed change. Inactive controls read about 0.05.

B1: TEV protease; numbered along this chain (parent)
chain: MGESLFKGPRDYNPISSSICHLTNESDGHTTSLYGIGFGPFIITNKHLFRRNNGTLVVQSLHGVFKVKDTTTLQQHLVDGRDMIIIRMPKDFPPFPQKLKFREPQREERICLVTTNFQTKSMSSMVSDTSCTFPSGDGIFWKHWIQTKDGQCGSPLVSTRDGFIVGIHSASNFTNTNNYFTSVPKNFMELLTNQEAQQWVSGWRLNADSVLWGGHKVFMVKPEEPFQPVKEATQL

Variants of: B1
Experiment: raw area under fraction-flipped curve 0-4 h after induction (AUC4h, not background-subtracted), DNA-recorder readout of cleavage of the substrate (dimensionless); higher = more cleavage of the substrate by the protease variant
Settings: temperature: 34 °C; time window: 0-4 h after rhamnose induction
Method: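 In vivo DNA recorder in E. coli TOP10(DE3) ΔrhaA at 34 °C. Each TEVp single-site mutant (parent TEVp 0) is paired with a single-site variant of the 7-mer TEVs (canonical ENLYFQ|S). The substrate sits between flexible linkers in a Bxb1-sfGFP-TEVs-SsrA fusion, so cleavage stabilises Bxb1 and speeds flipping of a recombination array, read by NGS. The value is the raw area under the fraction-flipped curve over 0-4 h after rhamnose induction (AUC4h), with ≥20 reads per time point. It is not background-subtracted; inactive controls average about 0.047.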
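Also: Bxb1 expression induced with 0.2% (w/v) L-rhamnose at OD600 near 0.5, cultures sampled hourly, flipped fraction per protease–substrate barcode pair counted by paired-end Illumina sequencing.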

| Variant | area with substrate EALYFQS | area with substrate ECLYFQS | area with substrate EELYFQS | area with substrate EILYFQS | area with substrate EKLYFQS | area with substrate ELLYFQS | area with substrate EMLYFQS | area with substrate EPLYFQS | area with substrate EQLYFQS | area with substrate ERLYFQS | area with substrate ESLYFQS | area with substrate EVLYFQS | area with substrate EHLYFQS | area with substrate EWLYFQS | area with substrate EYLYFQS | area with substrate EDLYFQS | area with substrate EGLYFQS | area with substrate EFLYFQS | area with substrate ETLYFQS |
| --- | --- | --- | --- | --- | --- | --- | --- | --- | --- | --- | --- | --- | --- | --- | --- | --- | --- | --- | --- |
| A196H | 0.104 | 0.106 | 0.118 | 0.0977 | 0.0736 | 0.0373 | 0.14 | 0.0864 | 0.118 | 0.098 | 0.128 | 0.0821 | – | – | – | – | – | – | – |
| I164Y | 0.0535 | – | 0.0648 | 0.0521 | 0.0565 | 0.0582 | 0.0583 | – | 0.0636 | 0.0597 | 0.0596 | 0.0368 | 0.0575 | 0.0624 | 0.0531 | – | – | – | – |
| I164W | 0.0672 | 0.0454 | – | 0.055 | – | 0.0553 | 0.0626 | – | 0.0569 | 0.0592 | – | – | 0.0585 | 0.0586 | – | 0.0535 | 0.0631 | – | – |
| I164T | 0.0943 | 0.0515 | – | 0.0637 | 0.0841 | – | 0.0926 | – | 0.0832 | 0.0885 | 0.0728 | 0.0656 | 0.0861 | 0.0739 | – | 0.095 | 0.0707 | 0.0755 | – |
| I164P | 0.052 | – | – | 0.0451 | 0.0428 | 0.05 | 0.0559 | 0.028 | 0.0475 | 0.0554 | 0.051 | 0.0545 | 0.0523 | 0.0614 | 0.0504 | 0.0479 | 0.0565 | 0.0435 | – |
| R204W | 0.168 | 0.1 | 0.119 | 0.0959 | 0.122 | 0.105 | 0.119 | – | 0.128 | 0.108 | 0.0975 | 0.102 | 0.116 | – | 0.0862 | 0.117 | 0.105 | 0.0923 | 0.106 |
| N206T | 0.125 | 0.107 | 0.117 | – | – | 0.0906 | 0.108 | 0.138 | – | – | – | – | – | – | 0.0957 | 0.113 | – | – | 0.128 |
| G202M | 0.0818 | – | – | 0.0565 | – | 0.0753 | 0.0534 | – | 0.0703 | 0.0888 | – | 0.0657 | 0.0866 | 0.0775 | 0.0648 | – | – | – | 0.0779 |
| P155Y | 0.0495 | 0.0511 | 0.0548 | 0.0574 | – | – | – | 0.0549 | – | 0.063 | 0.0523 | 0.062 | 0.0471 | – | 0.0484 | 0.0817 | 0.0375 | – | – |
| P155C | 0.11 | 0.0833 | – | 0.0806 | – | 0.088 | 0.097 | 0.0852 | 0.0962 | 0.0699 | 0.09 | 0.0585 | 0.0951 | – | – | 0.0649 | 0.069 | 0.0971 | 0.113 |
| R160H | 0.0913 | 0.0727 | 0.135 | – | 0.14 | – | 0.129 | – | – | 0.087 | 0.096 | 0.0849 | – | 0.0892 | 0.0965 | – | 0.0967 | – | – |
| G166N | 0.052 | 0.0417 | 0.0569 | 0.0284 | 0.0455 | – | 0.0495 | 0.0673 | 0.043 | – | – | – | – | – | 0.0412 | – | – | – | – |
| D161H | 0.0768 | 0.0933 | – | 0.0541 | 0.0765 | – | – | 0.0821 | 0.0706 | 0.0738 | 0.0833 | 0.0511 | – | – | – | 0.102 | – | – | – |
| N175M | 0.0578 | 0.133 | – | 0.0781 | 0.0834 | 0.0793 | 0.0388 | 0.11 | 0.0953 | 0.0749 | 0.0804 | 0.0882 | – | 0.0932 | – | – | 0.0756 | 0.0644 | – |
| N175T | 0.0649 | 0.0619 | – | – | 0.0528 | – | – | 0.0645 | – | 0.087 | 0.0575 | 0.0595 | – | – | – | 0.0594 | – | – | – |
| K185F | 0.109 | 0.122 | 0.132 | 0.0617 | 0.114 | 0.0926 | 0.109 | 0.127 | 0.124 | 0.0912 | 0.124 | 0.0953 | 0.0904 | 0.109 | 0.132 | – | 0.0834 | – | – |
| K185I | 0.157 | 0.109 | – | 0.113 | 0.106 | – | 0.0973 | 0.134 | 0.101 | – | 0.108 | – | – | 0.112 | 0.115 | – | 0.0935 | 0.111 | 0.0992 |
| K185E | 0.163 | 0.117 | 0.153 | 0.0987 | – | 0.137 | – | 0.15 | 0.196 | 0.142 | – | 0.112 | – | 0.142 | 0.0988 | – | 0.124 | 0.135 | – |
| G213M | 0.0316 | 0.0594 | 0.07 | 0.0634 | 0.0681 | 0.0521 | – | – | 0.0715 | 0.0611 | 0.0623 | 0.0506 | 0.0492 | 0.0512 | 0.0777 | 0.0748 | 0.0561 | – | – |
| G213W | 0.0602 | 0.0538 | 0.0365 | 0.0538 | 0.0572 | 0.0654 | 0.054 | – | 0.0634 | 0.0532 | 0.0685 | 0.0594 | 0.0498 | 0.0456 | 0.0204 | 0.0497 | – | 0.0514 | 0.0715 |
| W212D | 0.156 | – | 0.0735 | – | 0.066 | 0.0547 | 0.0755 | 0.059 | 0.0566 | 0.0567 | – | 0.0617 | – | – | 0.0811 | 0.0681 | 0.0562 | – | – |
| E195F | 0.12 | 0.0982 | – | 0.0934 | 0.103 | 0.0981 | 0.1 | – | 0.108 | 0.0985 | 0.101 | 0.0877 | 0.093 | 0.0814 | – | 0.115 | 0.0843 | – | – |
| Y179Q | 0.056 | 0.0693 | 0.0453 | 0.057 | 0.0759 | 0.0643 | 0.0608 | 0.0921 | 0.0653 | 0.0541 | 0.0518 | 0.0609 | 0.0584 | – | 0.0595 | 0.0525 | 0.0447 | 0.0382 | 0.0534 |
| Y179T | 0.05 | 0.0573 | – | 0.0375 | 0.0484 | – | 0.0921 | – | 0.0661 | 0.0935 | 0.0692 | – | – | – | – | 0.0767 | – | 0.0807 | – |
| W203E | 0.0607 | 0.0598 | – | – | 0.0703 | 0.0608 | 0.108 | – | – | 0.0605 | 0.0539 | 0.0846 | 0.0509 | 0.0523 | – | – | – | – | – |
| W203C | 0.0821 | 0.0622 | 0.0737 | 0.0502 | – | 0.0704 | – | 0.0768 | 0.0739 | 0.0753 | 0.0546 | 0.0519 | – | 0.082 | – | 0.0721 | 0.037 | – | 0.0666 |
| D149N | 0.1 | 0.146 | 0.0886 | 0.0603 | 0.117 | – | 0.112 | 0.122 | – | – | 0.0755 | 0.0944 | – | 0.0843 | 0.105 | 0.104 | 0.0709 | – | 0.111 |
